# Screen size: about 48,000 compounds; about 450 (0.94%) were called active. Another 19% or so got no clear call; they are omitted. Calls come from the whole dose curve; as a rule, active = well fitted inhibition curve with a large enough effect; inconclusive = small, poorly fitted or top-dose-only effect; inactive = no such curve, though single readings can be large or run the other way. The list shows a part of the results.
# Assay: Primary qHTS for Identification of Small Molecule Inhibitors of Huntingtin Promoter Activity; note: nearly all actives have a fitted effect of over 50% in size
# Settings: HEK293 HTT promoter firefly luciferase reporter (activity 0% = vehicle and -100% = no light), 24 h; series mostly up to 57.5 µM; activity change, negative = inhibition: at the top concentration
# Outline: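 Firefly luciferase readout (Dual-Glo, 10 min RT) after 24 h, 37 °C compound exposure (final up to 57.5 uM) of HEK293 reporter cells cultured 24 h beforehand; PTC124 at 50 uM final as control inhibitor; activity scaled vehicle 0%, zero RLU -100%.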
# Potency is the fitted concentration of half-maximal effect.
SMILES,"activity change, negative = inhibition",Potency
CCOc1ccc(N(C)S(=O)(=O)c2c(C(=O)N3CCC(C)CC3)c(C)n(C)c2C)cc1,inactive: -23.4%,
Cc1ccc(NC(=O)Cn2nnc3sc4c(c3c2=O)CCC(C)C4)cc1 (stereo not drawn),inactive: -9.18%,
COc1ccc(Cn2c(CCC(=O)Nc3ccc(C)cc3)nc3cccnc32)cc1,inactive: -26.2%,
CC1(C)OC[C@@H]2O[C@@]3(C(=O)O)OC(C)(C)O[C@H]3[C@@H]2O1,inactive: 2.72%,
CC(C)CCNS(=O)(=O)c1ccc(N2CCCCS2(=O)=O)cc1,,active: 14.1 µM
CCOc1ccc(C(=O)c2cn(CC(=O)Nc3ccc4c(c3)OCCO4)c3ccc(F)cc3c2=O)cc1,inactive: -6.9%,
COC(=O)CN1C(=O)CSc2ccc(S(=O)(=O)Nc3ccc(C(C)=O)cc3)cc21,inactive: -12.4%,
Cc1cccc(C)c1OC(=O)CSc1nnc(CNC(=O)c2ccccc2)o1,inactive: -20.4%,
CC1CCN(C(=O)CSc2nnc(-c3ccccc3)o2)CC1,inactive: 23.9%,
O=C(CSc1oc(-c2ccccc2)nc1S(=O)(=O)c1ccc(Cl)cc1)NC1CCCCC1,inactive: 7.89%,
CCCc1nnc(NC(=O)Cc2coc3ccc(C(C)C)cc23)s1,inactive: -27.5%,
COCCCNC(=O)CSc1nc2cc3c(cc2c(=O)n1CCCCCC(=O)NCc1ccc(OC)cc1)OCO3,inactive: -11.7%,
CC(C)COC(=O)Cn1nnc2sc(-c3ccccc3)cc2c1=O,inactive: 2.77%,
Cc1cc(C)c(NS(=O)(=O)c2cc(-c3onc(C)c3C)ccc2C)c(C)c1,inactive: -16%,
CC1CCN(C(=O)c2ccc3c(c2)N(Cc2ccccc2)C(=O)c2ccccc2S3(=O)=O)CC1,inactive: -28.6%,
O=C(Nc1cccc(C(F)(F)F)c1)c1cc(S(=O)(=O)N2CCCC2)c[nH]1,inactive: -11.4%,
COc1ccccc1-c1noc(-c2ccc(NCc3ccco3)c([N+](=O)[O-])c2)n1,inactive: 49.3%,
COc1ccc(NC(=O)Cn2nnc(C(=O)NCc3ccc4c(c3)OCO4)c2N)cc1,inactive: -16.8%,
Cc1cccc(N2CCN(C(=O)c3ccc4c(Cl)c5c(nc4c3)CCCC5)CC2C)c1 (stereo not drawn),inactive: -4.91%,
CCN(Cc1ccccc1)Cc1c(O)ccc2c(=O)c(-c3ccc(Cl)cc3)coc12,inactive: -4.71%,
O=C(NCc1ccccc1Cl)c1cnc(N2CCOCC2)c2ccccc12,inactive: -6.92%,
Cc1ccc(-c2cc(-c3coc4ccc(Cl)cc4c3=O)c3c(n2)-c2ccccc2OC3)cc1,inactive: -9.33%,
Cc1ccc2cccc(NC(=O)c3cccc4c(Cl)cccc34)c2n1,inactive: -1.44%,
O=C(C1CCC(Cn2c(=O)c3sccc3n(Cc3ccccc3)c2=O)CC1)N1CCCCC1 (stereo not drawn),inactive: -24.6%,

SMILES,"activity change, negative = inhibition",Potency
COc1ccc(OC)c(NC(=O)CC2C(=O)NCCN2C(=O)C(F)(F)F)c1 (stereo not drawn),inactive: -18%,
COc1ccc(NC(=O)c2oc3ccccc3c2NC(=O)C23CC4CC(CC(C4)C2)C3)c(OC)c1,inactive: -11.3%,
COc1ccc2c(c1)c(CC(=O)Nc1ccc(C(C)=O)cc1)c(C)n2C(=O)c1ccc(Cl)cc1,inactive: -24.1%,
COc1ccc(S(=O)(=O)NCCS(=O)(=O)N2CCN(c3ccccc3)CC2)cc1OC,inactive: -18.2%,
Cc1ccc(NC(=O)c2oc3ccccc3c2NC(=O)c2ccc(F)c(F)c2)cc1,inactive: -12.2%,
CCc1ccc(NC(=O)CSc2nc3c(oc4ccccc43)c(=O)n2-c2cccc(C)c2)cc1,inactive: -18.8%,
O=C(Nc1nc2ccc(Cl)cc2s1)c1cc(=O)c2ccccc2o1,inactive: 8.52%,
Cc1ccc(CNC(=O)CCCCCn2c(=O)c3sccc3n(CC(=O)Nc3ccc(C)c(F)c3)c2=O)cc1,inactive: -16.4%,
Cc1ccc(NC(=O)c2ccc(CN3CCN(C)CC3)cc2)cc1Nc1nccc(-c2cccnc2)n1,inactive,
CC(C)CN(CCCNC(=O)c1cc(=O)[nH]c2ccc(S(=O)(=O)N3CCCC3)cc12)CC(C)C,inactive: -18.2%,
CCc1cnc2c(c1SCc1ccccc1C)c(=O)n(C)c(=O)n2C,inactive: -14.6%,
COc1cccc(C(=O)NC(=NCCc2c[nH]c3ccc(OC)cc23)Nc2nc(C)cc(C)n2)c1,inactive: -30.8%,
CN1CCc2c(sc(NC(=O)CSc3ccc(F)cc3)c2-c2nc3ccccc3s2)C1,inactive: -17.3%,
COc1cc2c(cc1OC)n(CC(=O)c1cccc(Cl)c1)c(=O)n1nc(CCn3nc(C)cc3C)nc21,inactive: -19.2%,
CCOCCCNC(=O)c1cc(Sc2cccc(Cl)c2)nc2ccccc12,inactive: -24.7%,
O=C(CCN1C(=O)c2ccccc2Sc2ncccc21)Nc1ccc(F)cc1F,inactive: -9.24%,
COc1ccc(C2NC(=O)NC(C)=C2C(=O)Nc2ccccc2)cc1OC (stereo not drawn),inactive: -10.8%,
Cc1ccc(CC(=O)Nc2ccc3c(c2)N(C)C(=O)c2ccccc2S3)cc1,inactive: -28.3%,
CCOC(=O)c1ccc(NC(=O)C(Cc2ccccc2)N2Cc3ccccc3C2=O)cc1 (stereo not drawn),inactive: -10.6%,
Cc1ccc(-c2nn3c(=O)cc(CN4CCN(C(=O)/C=C/c5ccccc5)CC4)nc3s2)cc1,inactive: -16.8%,
CCOC(=O)c1ccc(NC(=O)CSc2cn(CC(=O)N3CCCC3)c3ccccc23)cc1,inactive: -28.2%,
CCc1ccc(-c2cn3c(n2)sc2cc(C(=O)NCCC4=CCCCC4)ccc23)cc1,inactive: 2.99%,
COC(=O)c1ccc2c(c1)N(CC(=O)Nc1ccc(OC)c(Cl)c1)C(=O)c1ccccc1S2,inactive: -33.8%,
Cc1ccc(-n2nc3c(N4CCCC(C(=O)NCc5ccc(Cl)cc5)C4)nnc(C)c3c2C)cc1 (stereo not drawn),inactive: -1.48%,

SMILES,"activity change, negative = inhibition",Potency
Cc1ccc(NC(=O)Cn2c(=O)n(Cc3nc(C)no3)c(=O)c3cc4c(cc32)OCO4)c(C)c1,inactive: -14.8%,
N#Cc1nc(COc2cccc(Cl)c2)oc1NCCc1ccccc1,inactive: 1.53%,
CCOc1ccccc1C(=O)N(Cc1cc(OC)c(OC)c(OC)c1)c1ccccn1,inactive: -8.14%,
COC(=O)CNC(=O)C1CCN(S(=O)(=O)c2cccc3nsnc23)CC1,inactive: -5.24%,
Cc1ccc(C(=O)c2c(N)c(C(=O)Nc3ccccc3Cl)c3ccccn23)cc1,inactive: -0.145%,
Cc1ccc(CCNC(=O)c2ccc3c(c2)nc2n3CCCCC2)cc1,inactive: -12.9%,
Cc1sc2ncn(CC(=O)Nc3cccc(C(F)(F)F)c3)c(=O)c2c1S(=O)(=O)N1CCN(C)CC1,inactive: -10.4%,
COc1cc2c(Nc3ccc(Br)cc3F)ncnc2cc1OCC1CCN(C)CC1,inactive,
CC1=C(C(=O)Nc2ccc(C)cc2C)C(c2ccc([N+](=O)[O-])cc2)n2ncc(C(=O)Nc3ccc(F)cc3)c2N1 (stereo not drawn),inactive: 0.505%,
Cc1ccc(-n2c(=O)c3c(cnn3C)n(CC(=O)Nc3ccc(C)cc3C)c2=O)cc1,inactive: -6.36%,
Cc1ccccc1Cc1c(C)nc2nc(SCC(=O)N(C)c3ccccc3)nn2c1C,inactive: -18.8%,
Cc1c(C(=O)N2CCC(C)CC2)c(S(=O)(=O)NCc2ccc(Cl)cc2)c(C)n1C,inactive: -23%,
CCN(CC)c1ccc2cc(-c3nc(-c4cccs4)no3)c(=O)oc2c1,inactive: 54.8%,
CC1CCN(S(=O)(=O)c2ccc3c(c2)c(=O)c(C(=O)NCCc2ccccc2)cn3C)CC1,inactive: -3.86% [at 11.5 µM],
COc1ccccc1CNC(=O)c1c(O)nc2c(C)cccn2c1=O,inactive: 6.04%,
CN(C)CCNC(=O)c1ccc2c(c1)NC(=O)C(CS(=O)(=O)Cc1cccc(Br)c1)N2 (stereo not drawn),inactive: -7.02%,
COc1ccccc1CNC(=O)CN(C)c1nn2c(=O)cc(C)nc2s1,inactive: -8.96%,
CCc1ccc(NC(=O)C2CCCN2S(=O)(=O)c2ccc3c(c2)n(C)c(=O)c(=O)n3C)cc1 (stereo not drawn),inactive: 12.4%,
CC(=O)c1ccc(NC(=O)CSc2nnc3ccc(-c4ccc(Br)cc4)nn23)cc1,inactive: -19.8%,
COc1ccccc1NC(=O)CCC(=O)N1CC(C)Oc2ccc(C)cc21 (stereo not drawn),inactive: -25.6%,
COc1ccc(C(=O)Nc2nc3nc(C)c(Cl)c(=O)n3[nH]2)cc1,inactive: 0.747%,
Cc1ccc2nc(Cl)c3cc(C(=O)NC4CCCCC4)sc3c2c1,inactive: -1.88%,
COc1ccc(OC)c(NC(=O)C(NS(=O)(=O)c2ccc3c(c2)CCCC(=O)N3)C(C)C)c1 (stereo not drawn),inactive: -11.1%,
CN1CCc2nc3sc(C(=O)Nc4c(F)cccc4F)c(N)c3cc2C1,inactive: 64.8%,

SMILES,"activity change, negative = inhibition",Potency
NS(=O)(=O)c1ccc(Cl)c(S(N)(=O)=O)c1,inactive: -2.99%,
Cc1ccc(-c2cnc(NCc3c(F)cccc3Cl)n2C)cc1,inactive: 21.9%,
CCOc1ccc(NC(=O)Cn2c(=O)c(CNc3ccc(OC)cc3)cc3ccc(OC)cc32)cc1,inactive: -14.6%,
CCOC(=O)c1cc(S(=O)(=O)N2CCN(c3cc(Cl)ccc3C)CC2)[nH]n1,inactive: -16.6%,
CCc1ccc(OCC(=O)Nc2c(C(=O)c3ccccc3)oc3ccccc23)cc1,inactive: 11.2%,
Cc1nc(-c2cccc(S(=O)(=O)N3CCC(C(=O)NCc4ccccc4)CC3)c2)no1,inactive: -33.5%,
Cc1cc(=O)n2nc(N3CCC(C(=O)NCc4ccccc4Cl)CC3)sc2n1,inactive: -13.1%,
Cc1ccccc1NC(=O)CCc1c(C)nc2c(c1C)c(=O)n(C)c(=O)n2C,inactive: -9.7%,
CCCN(C(=O)Cn1cnc2sc(C)c(S(=O)(=O)N3CCN(c4ncccn4)CC3)c2c1=O)c1cccc(C)c1,inactive: -15.2%,
Cc1cccc(CN2C(=O)c3ccccc3S(=O)(=O)c3ccc(C(=O)N4CCCC4)cc32)c1,inactive: -19.4%,
Cc1c(C(=O)NN2CCCCC2)nn(-c2ccc(Cl)cc2Cl)c1-c1ccc(Cl)cc1,inactive: -13.4%,
CCN(CC)S(=O)(=O)c1ccc(NC(=O)[C@H](CCSC)N2Cc3ccccc3C2=O)cc1,inactive: -20.1%,
Cc1ccc(S(=O)(=O)c2nnn3c2nc(N2CCCCC2)c2sccc23)cc1,inactive: 1.89%,
CCn1ccc2cc(S(=O)(=O)N3CCCN(C(=O)Nc4ccc(C)cc4)CC3)ccc21,inactive: -26.7%,
Cc1cc(C)cc(N(C)S(=O)(=O)c2nnc(NC(=O)COc3ccc(Cl)cc3)s2)c1,inactive: -1.82%,
CC(=O)c1cccc(NC(=O)CN2C(=O)CN(C)C(=O)c3ccccc32)c1,inactive: 4.21%,
Cc1cccc(Cn2c(-c3cccs3)nc3ccccc32)c1,inactive: -45.2%,
CCOc1ccc(Cn2c(CNS(=O)(=O)c3cccs3)nc3cccnc32)cc1,inactive: -7.45%,
Cc1ccc(N2CCN(c3cc(C)nc4c(-c5ccc(Cl)cc5)c(C)nn34)CC2C)cc1 (stereo not drawn),inactive: -15.4%,
NC(=O)Cn1c(=O)n(-c2ccc(F)c(Cl)c2)c(=O)c2sc3ccccc3c21,inactive: -27.7%,
CCc1nc(SCc2cc(=O)c3cc(F)ccc3[nH]2)n[nH]1,inactive: -1.69%,

# Reference: PubChem BioAssay AID1508623 (National Center for Advancing Translational Sciences (NCATS), 2021)
